SMILES strings stand for the structures. About 200 (0.44%) of roughly 45,000 compounds were called active. Inconclusive results (about 7%) are left out. Calls come from the whole dose curve; as a rule, active = well fitted activation curve with a large enough effect; inconclusive = small, poorly fitted or top-dose-only effect; inactive = no such curve, though single readings can be large or run the other way. Some of the results follow.

This test in a line: qHTS of TDP-43 Inhibitors: NCGC Sytravon Library Screen. Note: 0% is about no effect; nearly all actives have a fitted effect of over 55% in size. The following applies: yeast TDP-43 toxicity rescue, BacTiter-Glo growth, 24 h; series mostly up to 46.1 µM; growth rescue (activation): at the top concentration. An outline of the steps: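 TDP-43-expressing yeast, pregrown in raffinose, seeded at OD600 0.02 in galactose medium with compound for 24 hr at 30 deg C. Growth read by BacTiter-Glo luminescence, so rescue of toxicity appears as activation.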
Background: Quantitative high-throughput screening tests each substance at several concentrations.
Turning to `CCC(=O)c1ccc(OCC(=O)OCC(=O)Nc2sccc2C(N)=O)cc1`, the “growth rescue (activation)” value was inactive: 15.9%.
For the compound `CC1(C(=O)NS(=O)(=O)C2CC2)CCCN(C(=O)c2cccc(Cl)c2)C1` (stereo unspecified), the “growth rescue (activation)” value is inactive: -0.196%.
Next, `CC(C)c1ccccc1NC(=O)Nc1nnc([C@@H]2C[C@H](O)[C@@H](CO)O2)s1`: inactive: 3.39%.
On to `COc1cc2nc(CSc3ncn[nH]3)[nH]c(=O)c2cc1OC`, for which the “growth rescue (activation)” value is inactive: 2.57%.
Under `CCc1nc(N2CCCCC2C(=O)O)c2oc3ccccc3c2n1` (stereo unspecified) stands inactive: 6.5%.
Under `CC1(C)OC(=O)C(=NNc2ccc(C(=O)O)cc2)C(=O)O1` stands inactive: 9.61%.
Next, `CCOC(=O)C1=C(C)NC2=C(C(=O)c3ccccc32)C1c1cccnc1` (stereo unspecified): inactive: 15.1%; `CC1(C)CC(=O)c2sc(N3CCCCC3)nc2C1`: inactive: 6.96%; `Cc1ccc(NS(=O)(=O)c2cc(C(=O)N3CCN(C)CC3)ccc2C)cc1C`: inactive: -11%.
Regarding `COc1ccc(OC)c(-c2csc(N(CC3CCCO3)C(=O)C3CCCCC3)n2)c1` (stereo unspecified), the “growth rescue (activation)” value is inactive: -5.91%.
Next, `Cc1ccsc1/C=N/NC(=O)CN1CCN(S(=O)(=O)c2ccc(Br)cc2)CC1`: inactive: -2.68%; `C=CCNC(=S)NNC(=O)c1ccc(=O)n(Cc2ccc(Cl)cc2Cl)c1`: inactive: 7.52%; `COc1ccccc1/C=C\C(=O)NCC(=O)N/N=C(\C)Cc1ccccc1`: inactive: -4.68%.
Next, `COc1ccc(-c2nc(SCc3cc(=O)c4cc(C)ccc4[nH]3)n[nH]2)cc1`: inactive: 15.4%.
Next, `CCOCCCNC(=O)C(c1ccc(OC)cc1)N(Cc1ccc2c(c1)OCO2)C(=O)c1ccccc1O` (stereo unspecified): inactive: -3.08%; `CC1CCCCN1C(=O)c1cc(Cl)ccc1[N+](=O)[O-]` (stereo unspecified): inactive: 19.3%; `COc1cc(/C=C/C(=O)OCC(=O)Nc2ccc(S(=O)(=O)N3CCCC3)cc2)ccc1O`: inactive: 4.13%.
In the case of `COc1cc(C(=O)NCCNC(=O)c2ccco2)cc(OC)c1OC`, the “growth rescue (activation)” value is inactive: -37.7%.
Next, `N/C(=N\OC(=O)c1ccc([N+](=O)[O-])cc1)c1ccccn1`: inactive: 4.82%.
Under `COc1cccc(CC(=O)Nc2nc(-c3ccc(OC)c(OC)c3)cs2)c1` stands inactive: 14.4%.
Next, `Cc1ccc(S(=O)(=O)N(C)C)cc1NC(=O)COC(=O)c1ccc(Cl)cc1`: inactive: 12.3%; `COc1ccc(C(CCNCc2ccc(F)cc2)c2ccc(F)cc2)cc1` (stereo unspecified): inactive: -18.9%.
For `O=C(NCc1ccccc1)c1nc(S(=O)(=O)Cc2ccccc2)ncc1Cl`, the “growth rescue (activation)” value was inactive: 2.3%.
Consider `CCNC(=O)COc1ccc(/C=C2\COc3ccccc3C2=O)cc1OC`, for which the “growth rescue (activation)” value was inactive: 13.8%.
Turning to `O=C(Nc1cccc2ncccc12)C(c1ccccc1)c1ccccc1`, the “growth rescue (activation)” value is inactive: -0.436%.
Next, `CCCS(=O)(=O)NC(=O)C1(C)CCCN(C(=O)c2cc(C)nn2C(C)(C)C)C1` (stereo unspecified): inactive: 8.89%; `Cc1cc(C(=O)OCC(=O)c2ccccc2)c2ccccc2n1`: inactive: 20.8%.
On to `O=C(CCC(=O)N(CC(=O)NC1CCCC1)c1cccc(F)c1)Nc1nccs1`, for which the “growth rescue (activation)” value is inactive: 1.41%.
Under `Cc1ccc2ccccc2c1C(O)c1ncc(-c2cccc(C(F)(F)F)c2)[nH]1` (stereo unspecified) stands inactive: 22.7%; under `Cc1ccc(C(C(=O)NCC2CCCO2)N(C(=O)c2snc(C(N)=O)c2N)c2ccc(C(C)C)cc2)o1` (stereo unspecified), inactive: -21%; under `CCCCNC(=O)N(O)C1N(/N=C/c2cccnc2)C(=S)SC1(C)C` (stereo unspecified), inactive: -8.39%.
Next, `COc1ccc([N+](=O)[O-])cc1NC(=S)NC(C)=O`: inactive: -0.418%; `O=C(Nc1ccnn1C1CCN(C2CCC2)CC1)c1ccccc1Cl`: inactive: -1.13%; `COc1ccccc1N=Nc1c(O)[nH]c2ccc(Br)cc12`: inactive: 2.05%.
`C/C(=N\Nc1nncc2ccccc12)c1ccc(Cl)c([N+](=O)[O-])c1`: the “growth rescue (activation)” value is inactive: -3.01%.
Under `CCOc1ccc(S(=O)(=O)NCc2cccnc2)cc1NC(=O)c1ccccc1` stands inactive: -3.13%.
Next, `COc1ccc(C2(C)NC(=O)N(CC(=O)NCc3ccccc3)C2=O)cc1OC` (stereo unspecified): inactive: 11.1%; `Cn1cccc1/C=N/NC(=O)c1ccncc1`: inactive: 8.08%.
For `O=C(COc1ccc(-c2nnco2)cc1)Nc1ccc(F)c(Cl)c1`, the “growth rescue (activation)” value is inactive: 5.27%.
Next, `CCOC(=O)c1c(NC(=S)NC(=O)/C=C/c2cccs2)sc(C)c1C`: inactive: -6.48%; `CC(=O)Nc1ccc(NC(=O)COC(=O)[C@@H](NC(=O)c2ccc(F)cc2)C(C)C)cc1`: inactive: 0.52%; `O=C(Cn1cc(COc2ccc(Cl)c(Cl)c2)nn1)NS(=O)(=O)c1ccccc1OC(F)(F)F`: inactive: -0.949%.
Under `CC1(C(=O)Nc2cccc3cccnc23)CCN1C(=O)CC1CC1` (stereo unspecified) stands inactive: 6.8%; under `NC(=O)NOCc1ncc(C(F)(F)F)cc1Cl`, inactive: 11.1%; under `COc1cc2c(cc1OC)C(CCc1ccccc1)=NCC2`, inactive: -0.454%.
Under `Cc1noc(C)c1C(=O)NC(Cc1c[nH]c2ccccc12)C(=O)O` (stereo unspecified) stands inactive: 5.85%; under `O=C(COC(=O)Cc1c[nH]c2ccccc12)Nc1ccccc1`, inactive: 14%.
Consider `Cc1ccc(NC(=O)CSc2nc3sc(C)cc3c(=O)n2C)cc1`, for which the “growth rescue (activation)” value was inactive: -2.75%.
As to `CC1(C)C(=O)Nc2ccccc2N1C(=O)COC(=O)c1cccs1`, the “growth rescue (activation)” value is inactive: 8.96%.
Under `O=C(c1ccccc1)N1CCN(C(=O)C2CC2)CC1` stands inactive: -9.34%.
`C=CCCCCCCCCC(=O)NNC1=CC(=O)CC(C)(C)C1`: the “growth rescue (activation)” value was inactive: 18.1%.
Under `COc1ccc(-c2csc(/C(C#N)=C\c3ccc(O)c([N+](=O)[O-])c3)n2)cc1OC` stands inactive: -7.44%; under `CC(C)NC(=O)C1CCN(C2CCN(C(=O)/C=C/c3cccs3)CC2)CC1`, inactive: 3.08%.
Next, `COc1cc(C(C)=O)ccc1OC(=O)CN1C(=O)c2ccccc2C1=O`: inactive: -0.507%.
Under `Cc1ccc2nc(-c3ccccn3)c(NC3CCCC3)n2c1` stands inactive: -23.5%.
`COCCNC(=O)c1cc2c(-c3ccccc3F)nn(C)c2s1`: the “growth rescue (activation)” value was inactive: 27.1%.
Next, `CCOc1ccc(NC(=O)CSc2nc3nc4c(cc3c(=O)n2CC)COC(C)(C)C4)cc1`: inactive: 8.62%; `Cc1nn(-c2ccccc2)c(C)c1/C=N/NC(=O)CSc1nnc(-c2ccccc2)n1-c1ccc(Cl)cc1`: inactive: -5.96%; `Nc1c2c(nc3ccccc13)CCC2`: inactive: -3.25%.
Next, `O=C(Cc1ccc([N+](=O)[O-])cc1)N1N=C(c2ccncc2)CC1(O)C(F)(F)F` (stereo unspecified): inactive: 2%; `CC(C)C(OC(=O)c1ccc(Cl)nc1)C(=O)NC1CCCCC1` (stereo unspecified): inactive: 16.5%; `Cc1cc(C)c(NC(=O)CC(=O)c2ccccc2)c(Cl)c1`: inactive: 0.593%.
Under `CCC(CC)c1nnc(NC(=O)COc2ccc3c(c2)OCO3)s1` stands inactive: 3.12%; under `O=C(N/N=C/C=C/c1ccccc1[N+](=O)[O-])c1ccncc1`, inactive: 6.78%.
As to `O=C(NCC1CCCO1)C1CCCN1C(=O)NC1CCCCC1` (stereo unspecified), the “growth rescue (activation)” value is inactive: 19.8%.
Under `Cc1cc(C)c2nc(C)cc(Nc3ccc(C(=O)N4CCOCC4)cc3)c2c1` stands inactive: 9.61%; under `CCCCN1CC(C(=O)NC2CCCCC2)CC1=O` (stereo unspecified), inactive: 16.6%; under `COc1cc(CNc2ccc(CNc3ncn[nH]3)cc2)ccc1OCc1ccccc1`, inactive: 4.25%.
Next, `COc1cc(N=C2C(=O)N3c4c(cccc42)C(C)=CC3(C)C)cc(OC)c1`: inactive: 2.64%.
Under `Cc1ccc(N(Cc2cc3ccccc3[nH]c2=O)S(=O)(=O)c2ccccc2)cc1` stands inactive: 12.9%.
Take `CC(=O)c1cccc(NC(=O)COC(=O)COc2ccc(Cl)cc2)c1`: the “growth rescue (activation)” value was inactive: -28.4%.
Under `Cc1ccc2c(COC(=O)C34CC5CC(CC(C5)C3)C4)cc(=O)oc2c1` stands inactive: 12.6%; under `CC(C)(C)n1ncc2c(=O)n(CC(=O)Nc3ccccc3)cnc21`, inactive: 8.65%.
As to `COc1ccccc1C(=O)C1CCCN(C(=O)CCc2ccccn2)C1` (stereo unspecified), the “growth rescue (activation)” value is inactive: 4.82%.
Next, `O=c1[nH]c2ccccc2nc1/C=C/c1ccccc1`: inactive: -4.75%; `CN(c1ccccc1)c1ccc(/C=C(/CCC(=O)O)c2nc3ccccc3s2)cc1[N+](=O)[O-]`: inactive: 7.75%.
Under `CCOc1cc(C(c2c(C)[nH][nH]c2=O)c2c(C)[nH][nH]c2=O)ccc1O` stands inactive: -9.59%; under `CCN(c1ccccc1)S(=O)(=O)c1ccc(Cl)c(NC(=O)Nc2ccc(Cl)cc2C#N)c1`, inactive: 6.59%.
In the case of `Cc1ccc(CNC(=O)C2CSC3(C)CCC(=O)N23)cc1` (stereo unspecified), the “growth rescue (activation)” value is inactive: 4.01%.
Under `Cc1cc(C)nc(N2CCC(C(=O)Nc3ccc4c(c3)OCCO4)CC2)n1` stands inactive: 1.79%; under `Cc1ccc(SCc2ccc(C(=O)Nc3cccnc3)cc2)cc1`, inactive: 26.1%.
Under `Brc1ccc(-c2csc(N/N=C/c3ccco3)n2)cc1` stands inactive: 0.195%.
In the case of `COc1ccc(OC)c(NC(=O)CN(C)CC(=O)Nc2ccccc2Cl)c1`, the “growth rescue (activation)” value was inactive: 18.5%.
Under `CN(C)C(CNC(=O)c1cccc(C(F)(F)F)c1)c1ccco1` (stereo unspecified) stands inactive: 4.39%; under `Cc1ncc(S(=O)(=O)c2ccc(Cl)cc2)c(-c2ccccc2)n1`, inactive: 3.98%; under `Cc1c(Cl)cccc1NCC(=O)NN=C1CCCC1`, inactive: 4.36%.
On to `Cc1cccn2c(CN3CCCN(C=O)CC3)c(C(=O)N(C)CCc3ccccc3)nc12`, for which the “growth rescue (activation)” value is inactive: -12.9%.
On to `COc1ccc(OCCSc2nc(C)c(Cc3ccccc3)c(=O)[nH]2)cc1`, for which the “growth rescue (activation)” value is inactive: 8.3%.
Under `CC(=O)NCCNc1nc2cc(-c3cccc(C(F)(F)F)c3)sc2c(=O)n1C` stands inactive: 14.1%; under `CCCCCCCCCCOC(=O)Cn1c(COc2cccc(C)c2)[n+](C)c2ccccc21`, inactive: -50.7%; under `CCN(CC)C(=S)SCc1csc(CC(=O)Nc2ccccc2C)n1`, inactive: 26.9%.
Next, `OC(c1ccc(Cl)c(Cl)c1)c1ncc(-c2ccccc2Cl)[nH]1` (stereo unspecified): inactive: 10.7%; `O=C(Nc1ccccc1)c1ccc2snnc2c1`: inactive: 12.9%; `CCC(C)C(NC(=O)c1ccccc1NC(=O)c1ccco1)C(=O)NC1CCCCC1` (stereo unspecified): inactive: 22.3%.
Next, `Cc1ccc(/C(O)=C2\C(=O)C(=O)N(CC(C)O)C2c2ccc(N(C)C)cc2)cc1` (stereo unspecified): inactive: 19%; `CC(=O)Nc1cc(-c2ccccc2N(C)C)cn2c(-c3ccc(S(C)(=O)=O)cc3)cnc12`: inactive: 6.4%.
For the compound `Cc1ccc(OCCSc2nc3ncnc(N)c3[nH]2)cc1`, the “growth rescue (activation)” value was inactive: 2.97%.
Under `O=C(NC1CC1)c1cccc(-c2cncc3nccn23)c1` stands inactive: -20.2%; under `Cc1cccc(NC(=S)NCc2ccco2)c1C`, inactive: -16.1%.
For `COC(=O)c1cc(C)nc2c1C(=O)C(=O)C=C2N1CCOCC1`, the “growth rescue (activation)” value was inactive: -23.7%.
Under `O=C(NCC(=O)N(c1ccc(F)cc1)C(C(=O)NC1CCCCC1)c1ccncc1)c1ccco1` (stereo unspecified) stands inactive: 3.36%.
On to `Cc1ccc(NC(=O)COC(=O)CNC(=O)c2ccc3ccccc3c2)c([N+](=O)[O-])c1`, for which the “growth rescue (activation)” value is inactive: -14.5%.
For `COc1cccc(N2C(=O)C3CCCN3C2=S)c1` (stereo unspecified), the “growth rescue (activation)” value was inactive: -31.3%.
As to `CC1(C(=O)NS(=O)(=O)c2ccc(F)cc2F)CCN1C(=O)Cc1cccc2ccccc12` (stereo unspecified), the “growth rescue (activation)” value was inactive: 3.56%.
Next, `O=C(NCc1ccccc1Cl)c1cc2c(s1)-c1ccccc1SC2`: inactive: 4.11%; `COc1ccc(C(=O)Nc2nnc(-c3ccc(F)cc3)s2)c(OC)c1`: inactive: -20.9%.

The values are drawn from PubChem BioAssay AID1347073 (National Center for Advancing Translational Sciences (NCATS), 2019).
